The source of these data is US20040186122A1, “Method of treating acute pain with a unitary dosage form comprising ibuprofin and oxycodone” (Forest Laboratories, Inc., priority 2002, published 2004).

This test has as its system patients with moderate to severe pain following surgical removal of at least 2 ipsilateral bony impacted third molars. The test can be described thus: Study 1: single-dose clinical study, onset of analgesia after third molar surgery. As to conditions: single dose 5 mg.

`COc1ccc2c3c1O[C@H]1C(=O)CC[C@@]4(O)[C@@H](C2)N(C)CC[C@]314.Cl` [oxycodone HCl, oxycodone hydrochloride]: the onset of analgesia was above 360 min.
